Data from patent EP4768039A1, “PHARMACEUTICAL COMPOSITION AND USE THEREOF” (Shanghai Regenelead Therapies Co., Ltd., priority 2023, dated 2025).

T1: Human VEGF-A protein (human, UniProt P15692-4 27-191, limits assumed)
T1 sequence (looked up): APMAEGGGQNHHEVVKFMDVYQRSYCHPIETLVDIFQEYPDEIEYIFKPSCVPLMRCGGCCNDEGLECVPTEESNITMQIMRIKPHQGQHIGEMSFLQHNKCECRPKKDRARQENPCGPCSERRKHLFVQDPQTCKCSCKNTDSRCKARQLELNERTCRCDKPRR


Key:
Assay in all cases: cell-based or functional assay
Human VEGF-A protein [1] = biological target: T1, Human VEGF-A protein
Human VEGF-A protein [2] = biological target: T1, Human VEGF-A protein; remark: listed apart in the source
Human VEGF-A protein [3] = biological target: T1, Human VEGF-A protein; remark: listed apart in the source

| Binder | VEGF-A IC50 (nM); VEGF-A-induced NFAT-RE Luc2P KDR reporter cells (Human VEGF-A protein [1]) | VEGF-A IC50 (nM); VEGF-A-induced NFAT-RE Luc2P KDR reporter cells (Human VEGF-A protein [2]) | VEGF-A IC50 (nM); VEGF-A-induced NFAT-RE Luc2P KDR reporter cells (Human VEGF-A protein [3]) |
| --- | --- | --- | --- |
| Aflibercept (PR1076), R1D2-R2D3-Fc (Fc fusion) SDTGRPFVEMYSEIPEIIHMTEGRELVIPCRVTSPNITVTLKKFPLDTLIPDGKRIIWDSRKGFIISNATYKEIGLLTCEATVNGHLYKTNYLTHRQTNTIIDVVLSPSHGIELSVGEKLVLNCTARTELNVGIDFNWEYPSSKHQHKKLVNRDLKTQSGSEMKKFLSTLTIDGVTRSDQGLYTCAASSGLMTKKNSTFVRVHEK[human IgG1 Fc not spelt out] | 0.5 nM | 0.72 nM | 0.76 nM |
| PR1145(R1D2-R2D3-linker-R2D2(C162V)-R2D3(S283T)-Fc) (Fc fusion) SDTGRPFVEMYSEIPEIIHMTEGRELVIPCRVTSPNITVTLKKFPLDTLIPDGKRIIWDSRKGFIISNATYKEIGLLTCEATVNGHLYKTNYLTHRQTNTIIDVVLSPSHGIELSVGEKLVLNCTARTELNVGIDFNWEYPSSKHQHKKLVNRDLKTQSGSEMKKFLSTLTIDGVTRSDQGLYTCAASSGLMTKKNSTFVRVHEKGGGGSSPFIASVSDQHGVVYITENKNKTVVIPCLGSISNLNVSLVARYPEKRFVPDGNRISWDSKKGFTIPSYMISYAGMVFCEAKINDESYQSIMYIVVVVGYRIYDVVLSPSHGIELSVGEKLVLNCTARTELNVGIDFNWEYPSSKHQHKKLVNRDLKTQSGTEMKKFLSTLTIDGVTRSDQGLYTCAASSGLMTKKNSTFVRVHEK[human IgG1 Fc with changes not spelt out] | 0.92 nM |  |  |
| PR1174(R1D2-R2D3-linker-R2D2(C162V/Y221S/R222K)-R2D3(N274F/S283T)-Fc) (Fc fusion) SDTGRPFVEMYSEIPEIIHMTEGRELVIPCRVTSPNITVTLKKFPLDTLIPDGKRIIWDSRKGFIISNATYKEIGLLTCEATVNGHLYKTNYLTHRQTNTIIDVVLSPSHGIELSVGEKLVLNCTARTELNVGIDFNWEYPSSKHQHKKLVNRDLKTQSGSEMKKFLSTLTIDGVTRSDQGLYTCAASSGLMTKKNSTFVRVHEKGGGGSSPFIASVSDQHGVVYITENKNKTVVIPCLGSISNLNVSLVARYPEKRFVPDGNRISWDSKKGFTIPSYMISYAGMVFCEAKINDESYQSIMYIVVVVGSKIYDVVLSPSHGIELSVGEKLVLNCTARTELNVGIDFNWEYPSSKHQHKKLVFRDLKTQSGTEMKKFLSTLTIDGVTRSDQGLYTCAASSGLMTKKNSTFVRVHEK[human IgG1 Fc with changes not spelt out] |  | 1.02 nM |  |

Read-outs that look alike come from different tables or passages of the source.
